Experimental data as given in PubChem BioAssay AID504339 (National Center for Advancing Translational Sciences (NCATS), 2011).
The campaign covered roughly 390,000 compounds. About 17,000 (4.4%) were called active. Inconclusive means that the source gave no clear call. Such entries were picked first, then a sample of the others. Calls follow the shape of the dose curve; as a rule, active = well fitted inhibition curve with a large enough effect; inconclusive = small, poorly fitted or top-dose-only effect; inactive = no such curve, though single readings can be large or run the other way. Where the call is inconclusive, the potency comes from a doubtful curve fit.

Biological target: Lysine-specific demethylase 4A (Homo sapiens) (UniProt O75164)
Experiment: qHTS Assay for Inhibitors of JMJD2A-Tudor Domain; also: nearly all actives have a fitted effect of over 50% in size
Conditions: AlphaScreen JMJD2A-Tudor / H3K4me3 peptide binding; series mostly up to 114 µM
Potency is read from the fitted curve at half-maximal effect; tags tell the direction and shape of the fitted curve.

Sequence of UniProt O75164 (O75164 whole entry, looked up, the tested form may be a part): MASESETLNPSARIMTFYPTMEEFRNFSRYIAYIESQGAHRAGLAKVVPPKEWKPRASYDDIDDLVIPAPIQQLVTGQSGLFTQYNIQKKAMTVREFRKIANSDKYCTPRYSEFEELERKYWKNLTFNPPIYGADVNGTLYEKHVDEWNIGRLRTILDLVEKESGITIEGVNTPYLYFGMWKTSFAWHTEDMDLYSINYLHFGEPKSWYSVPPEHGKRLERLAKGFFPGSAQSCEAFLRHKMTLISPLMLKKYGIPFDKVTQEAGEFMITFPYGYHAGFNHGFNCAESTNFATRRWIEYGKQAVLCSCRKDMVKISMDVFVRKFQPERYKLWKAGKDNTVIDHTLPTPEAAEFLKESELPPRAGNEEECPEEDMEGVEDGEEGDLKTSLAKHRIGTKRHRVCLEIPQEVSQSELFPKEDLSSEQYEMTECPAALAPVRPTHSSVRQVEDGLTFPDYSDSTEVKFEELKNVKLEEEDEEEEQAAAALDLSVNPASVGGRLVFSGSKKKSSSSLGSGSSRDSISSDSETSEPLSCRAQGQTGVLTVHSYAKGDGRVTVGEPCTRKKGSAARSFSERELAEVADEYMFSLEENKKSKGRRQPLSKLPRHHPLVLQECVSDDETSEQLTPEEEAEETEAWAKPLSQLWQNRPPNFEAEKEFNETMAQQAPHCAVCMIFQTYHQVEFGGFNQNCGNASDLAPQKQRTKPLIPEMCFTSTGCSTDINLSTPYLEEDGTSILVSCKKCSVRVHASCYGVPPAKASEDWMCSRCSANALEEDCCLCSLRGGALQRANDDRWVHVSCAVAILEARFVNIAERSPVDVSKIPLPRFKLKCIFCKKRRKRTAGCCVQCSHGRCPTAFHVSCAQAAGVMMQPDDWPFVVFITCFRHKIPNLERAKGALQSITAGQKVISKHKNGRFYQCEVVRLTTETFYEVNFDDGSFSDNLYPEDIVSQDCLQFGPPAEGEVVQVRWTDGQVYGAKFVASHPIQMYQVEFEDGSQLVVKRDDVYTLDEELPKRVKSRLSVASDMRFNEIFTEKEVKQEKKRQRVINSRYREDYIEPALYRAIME

Compound | Potency
O=C(COc1ccc(Br)cc1)N1CCN(c2ccc([N+](=O)[O-])c(N3CCCCC3)c2)CC1 | inconclusive: 7.08 µM [inhibitor, full curve, poor fit]
O=C1N/C(=C/c2ccc(N3CCOCC3)o2)C(=O)N1c1ccccc1 | inconclusive: 25.1 µM [inhibitor, partial curve]
Cc1cc(C)cc(Oc2nc3ccccn3c(=O)c2/C=C(\C#N)c2nc3ccccc3s2)c1 | inactive
Cc1ccc(C(=O)Nc2c(C)cc(-c3ccccc3)oc2=O)cc1 | inactive
Cc1c(C)n(CC(O)CNc2ccccc2)c2ccccc12 (stereo unspecified) | active: 25.1 µM
COc1ccc(NC2CCCN(C(=O)c3ccccc3N3CCOCC3)C2)cc1OC (stereo unspecified) | inactive
O=C1CC(=C2c3ccccc3-c3ccccc32)C(=O)N1CCCCN1CCN(c2ccccc2)CC1 | inconclusive: 6.31 µM [inhibitor, partial curve]
Cc1ccc(NC(=O)c2nc(S(C)(=O)=O)ncc2N(Cc2ccco2)Cc2cccs2)cc1C | inconclusive: 56.2 µM [inhibitor, partial curve]
CCOC(=O)c1c(C)[nH]c(N=Nc2ccc(C)cc2)c1C | active: 39.8 µM
COCCn1nnnc1C(c1ccccc1OC)N1CCN(C(=O)c2ccco2)CC1 (stereo unspecified) | inconclusive: 10 µM [inhibitor, partial curve, poor fit]
O=C(NCCCN1CCCC1=O)c1cccc(Oc2ccccc2)c1 | inactive
CC(=O)NC(C)C(=O)OCC(=O)c1ccc(Cl)s1 (stereo unspecified) | inactive
CCN(CC)c1ccc(/C=N/NC(=S)NCc2ccc(OC)cc2)cc1 | inconclusive: 28.2 µM [inhibitor, partial curve]
COc1ccc(CCNc2nc(-c3cccc(NC(C)=O)c3)cs2)cc1OC | inconclusive: 89.1 µM [inhibitor, partial curve]
O=[N+]([O-])c1ccc2[nH]c3c(c2c1)CCCC3 | inconclusive: 50.1 µM [inhibitor, partial curve]
N/C(=N\OC(=O)CSc1ccccc1)c1ccc([N+](=O)[O-])cc1 | inconclusive: 25.1 µM [inhibitor, partial curve]
O=S(=O)(Nc1ncnc2sc3c(c12)CCC3)c1cc(F)ccc1F | inactive
CC1CCc2ccccc2N1CC(=O)Nc1cccc(S(=O)(=O)N2CCCC2)c1 (stereo unspecified) | inconclusive: 15.8 µM [inhibitor, full curve]
CCOC(=O)c1c(NC(=S)N2CCN(C)CC2)sc2c1CCN(C(=O)OCC)C2 | inconclusive: 14.1 µM [inhibitor, partial curve]
Cc1ccc(Nc2nc(N)nc(CN3CCN(Cc4ccc5c(c4)OCO5)CC3)n2)cc1C | inconclusive: 39.8 µM [inhibitor, partial curve]
COCCNC(=O)Cn1c(=O)c2cccn2c2ccc(F)cc21 | inconclusive: 50.1 µM [inhibitor, partial curve]
CC(=O)Oc1ccc2oc(/C=C/N(C)C)c([N+](=O)[O-])c2c1 | inconclusive: 63.1 µM [inhibitor, partial curve, poor fit]
Cc1ccc(NC(=O)NNC(=O)Cn2nc(-c3ccccc3)c(-c3ccccc3)c(C#N)c2=O)cc1 | inconclusive: 56.2 µM [inhibitor, partial curve]
Cc1ccc(N=Nc2ccc(O)cc2)c(Br)c1 | active: 35.5 µM

Compound | Potency
CCOC(=O)c1c2c(n(C)c1C)C(=O)C(=O)c1ccc(Br)cc1-2 | inactive
COc1ccc(CNCC(O)COc2ccc(C)cc2[N+](=O)[O-])cc1 (stereo unspecified) | inconclusive: 100 µM [inhibitor, partial curve, poor fit]
O=Cc1ccc2cccnc2n1 | inconclusive: 39.8 µM [inhibitor, single point]
C(=NN1CCCCCC1)c1ccccc1 | inconclusive: 28.2 µM [inhibitor, partial curve]
Nc1[nH]c(N=NC(=O)c2ccc(Cl)cc2)c2ccccc12 | inconclusive: 70.8 µM [inhibitor, single point]
COc1ccc(-c2nnc(SCC(=O)Nc3ccccc3)n2C)cc1 | inactive
COc1ccc(OCCn2cncn2)cc1 | active: 7.94 µM
CC1(C)Cc2c(cnn2-c2ccccc2)-c2c1c1ccccc1n2CC(O)CBr (stereo unspecified) | inconclusive: 56.2 µM [inhibitor, partial curve]
CC1Sc2ccc(S(=O)(=O)CCC(=O)Nc3cc(F)ccc3F)cc2NC1=O (stereo unspecified) | inconclusive: 25.1 µM [inhibitor, full curve, poor fit]
Cc1ccc(O)c(C(=O)C=Cc2ccccc2)c1 | active: 39.8 µM
CNS(=O)(=O)c1cccc(C(=O)OC2CCCCC2=O)c1 (stereo unspecified) | inactive
CCc1ccc(NC(=O)N(CCN2CCOCC2)Cc2ccc3c(c2)CCCN3CC)cc1 | active: 22.4 µM
CC1=NN(c2ccccc2)C(=O)/C1=C\c1c(C)[nH]n(-c2ccccc2)c1=O | inconclusive: 22.4 µM [inhibitor, full curve, poor fit]
C/C(=N\Nc1nccnc1Cl)c1ccc(F)cc1 | inactive
Cc1ccc(NC(=O)c2cc(Cl)ccc2[N+](=O)[O-])cc1C | inconclusive: 50.1 µM [inhibitor, partial curve]
COc1ccc(-c2cc(=Nc3ccc(C(=O)O)cc3)c3cc(C)ccc3o2)cc1 | inconclusive: 20 µM [inhibitor, full curve, poor fit]
COc1ccccc1N1CCN(/N=C\c2cccnc2)CC1 | inconclusive: 89.1 µM [inhibitor, partial curve]
Cc1nn(CCS(=O)(=O)c2ccc(Cl)cc2)c(C)c1Br | inconclusive: 89.1 µM [inhibitor, single point]
COc1cccc(N2CCN(c3ccc4nnc(CCC(=O)Nc5ccc(OC)c(OC)c5)n4n3)CC2)c1 | inactive
COc1cc2c(cc1OC)C1(Nc3c-2c(C)nn3-c2ccccc2)C(=O)Nc2ccccc21 (stereo unspecified) | inconclusive: 56.2 µM [inhibitor, partial curve]
CN(CCOc1ccccc1)CC(=O)Nc1cccc(Br)c1 | active: 1.58 µM
COc1ccc(C)cc1NCc1ccc(OC)c(C)c1OC | active: 20 µM
CC(C)(c1ccc(O)c([N+](=O)[O-])c1)c1ccc(O)c([N+](=O)[O-])c1 | active: 56.2 µM
COc1ccc(NC(=O)CN(C)C2CCCCC2)c([N+](=O)[O-])c1 | inconclusive: 31.6 µM [inhibitor, partial curve]

Compound | Potency
CC1=CC(C)(C)Nc2ccc(OC(=O)c3cccnc3)cc21 | inconclusive: 79.4 µM [inhibitor, partial curve]
Cc1ccc(-c2csc(NC(=O)c3ccc([N+](=O)[O-])o3)n2)cc1 | inconclusive: 2.82 µM [inhibitor, full curve, poor fit]
COC(=O)c1cc(NC(=O)c2sc3ccccc3c2Cl)cc(C(=O)OC)c1 | inactive
Cc1cccc(N2CCN(c3ncnc4c3nc3n4CCCCC3)CC2C)c1 (stereo unspecified) | inconclusive: 50.1 µM [inhibitor, partial curve]
[S-]c1nnc(-c2ccc(Br)cc2)n1-c1ccccc1.[Zn+2] | active: 50.1 µM
Cc1cc(=O)nc2c3ccccc3n(CC(=O)NCCCN3CCOCC3)n12 | inconclusive: 14.1 µM [inhibitor, partial curve, poor fit]
CCOCc1[nH]c(=S)[nH]c(=O)c1Cc1ccc(OCC(C)C)cc1 | active: 50.1 µM
Fc1ccc(C2=Nn3c(nnc3-c3ccco3)SC2)cc1 | inactive
O=C1NC(=Nc2ccccc2)S/C1=C\C=C\c1ccco1 | active: 50.1 µM
CCN(CC)c1ccc(NC(=O)CN(C)S(=O)(=O)c2cccc3nsnc23)c(C)c1 | inconclusive: 7.08 µM [inhibitor, full curve, poor fit]
CCOc1ccccc1NC(=O)Nc1ccc2nc(N3CCN(C)CC3)cc(C)c2c1 | inconclusive: 56.2 µM [inhibitor, single point]
C/C=C/Cn1c(SCc2ccc(Cl)cc2)nc2c1c(=O)[nH]c(=O)n2C | inactive
Cc1cccc(OCC(=O)N(Cc2cccs2)C2CCS(=O)(=O)C2)c1C (stereo unspecified) | inactive
CCOC(=O)c1[nH]c2ccccc2c1NC(=S)Nc1cc(C)ccc1C | inconclusive: 50.1 µM [inhibitor, full curve]
Cc1cc2cc(CNC(=O)c3ccc(C)c([N+](=O)[O-])c3)ccc2[nH]1 | inconclusive: 39.8 µM [inhibitor, partial curve]
COC(=O)c1c(C)[nH]c(C)c1-c1ccc([N+](=O)[O-])cc1 | inconclusive: 28.2 µM [inhibitor, partial curve, poor fit]
O=C1c2ccccc2C(=O)N1Cc1nn2c(-c3ccc(Cl)cc3)nnc2s1 | inactive
Cc1cccc(NC(=O)COc2ccc(/C=C\c3[nH]c(=O)[nH]c(=O)c3[N+](=O)[O-])cc2)c1 | inconclusive: 44.7 µM [inhibitor, partial curve]
C=CCn1c(SCC(C)=O)nc2scc(-c3ccc(C)o3)c2c1=O | inconclusive: 100 µM [inhibitor, partial curve, poor fit]
CCN(C(=O)CSc1nc2ccccc2n1CCc1ccccc1)C1CCS(=O)(=O)C1 (stereo unspecified) | inconclusive: 89.1 µM [inhibitor, single point]
CC(C)=NNc1nc2c(c(=O)[nH]c(=O)n2C)n1CCCc1ccccc1 | inconclusive: 50.1 µM [inhibitor, partial curve]
Cc1cccc(-c2n[nH]c(=S)n2-c2ccccc2)c1[N+](=O)[O-] | active: 35.5 µM
COC(=O)c1ccc(NC2c3ncccc3C(=O)N2Cc2cccs2)cc1 (stereo unspecified) | inactive
